# The campaign covered roughly 310,000 compounds. About 11,000 (3.5%) were called active. Inconclusive means that the source gave no clear call. Such entries were picked first, then a sample of the others. Calls follow the shape of the dose curve; as a rule, active = well fitted inhibition curve with a large enough effect; inconclusive = small, poorly fitted or top-dose-only effect, or effect the other way; inactive = flat fitted curve, though single readings scatter. No potency is given beside an inconclusive call; the fits are too rough.
# Test: VP16 counterscreen qHTS for inhibitors of ROR gamma transcriptional activity;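 also: Gal4-VP16 expression switched on by copper sulfate through the metallothionein promoter; nearly all actives have a fitted effect of over 50% in size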
# Conditions: Drosophila S2 Gal4-VP16 UAS-luciferase, luminescence, 20 h; series mostly up to 53.6 µM
# Potency is read from the fitted curve at half-maximal effect; tags tell the direction and shape of the fitted curve.
row,SMILES,Potency
1,CC1CCCCN1C(=O)c1ccc(C(=O)N2CCCCC2C)cc1 (stereo not given),inactive
2,CC#CCCCC(=O)Nc1cccc(C(=O)O)c1,"inconclusive [inhibitor, single point]"
3,Cc1cc(Nc2ccc(Cl)cc2)nc(NCc2ccccc2)n1,"inconclusive [inhibitor, single point]"
4,Cc1cccc(NC2=C(Cl)C(=O)OC2OC(=O)c2ccco2)c1 (stereo not given),"inconclusive [inhibitor, single point]"
5,CCC(C)c1ccc(NC(=O)c2cccs2)cc1 (stereo not given),"inconclusive [inhibitor, full curve, poor fit]"
6,Cc1[nH]c(/C=C2\C(=O)Nc3ccc(S(=O)(=O)N(C)c4cccc(Cl)c4)cc32)c(C)c1C(=O)N1CCN(C)CC1,"inconclusive [inhibitor, single point]"
7,CCCc1nn(C)c(C(=O)Nc2ccc(C)c(C)c2)c1Cl,"inconclusive [activator, partial curve, poor fit]"
8,Cc1ccc(Cl)cc1NC(=S)N(Cc1ccco1)C(C)c1cccs1 (stereo not given),active: 7.08 µM
9,CC(C)OC(=O)c1ccc(NC(=O)CSc2nc3ncccc3[nH]2)cc1,"inconclusive [inhibitor, single point]"
10,Cc1ccnc(-n2sc3ccccc3c2=O)n1,active: 11.2 µM
11,CC1CCN(C(=O)COC(=O)c2ccc3c(c2)OCO3)CC1,inactive
12,COc1ccc(O)c(-c2cc(-c3cccs3)[nH]n2)c1,"inconclusive [inhibitor, single point]"
13,O=C(O)C1CC(=O)N(c2ccc(OCc3ccccc3Cl)cc2)C1 (stereo not given),"inconclusive [inhibitor, partial curve]"
14,CCOc1ccc(C(=O)NC(=S)Nc2ccccc2N2CCC(C)CC2)cc1[N+](=O)[O-],active: 3.16 µM
15,CNC(=O)Cn1nc(-c2ccc(C)cc2)c2ccccc2c1=O,inactive
16,Cc1nnc(N/N=C/c2ccc(-c3ccc(Br)cc3)o2)n1N,active: 8.91 µM
17,Cc1c(Cl)cccc1NC(=S)NCCC(c1ccccc1)c1ccccc1,active: 1.26 µM
18,CCOc1cc(NC(=S)Nc2ccccc2)c(OCC)cc1NC(=O)c1ccccc1,active: 10 µM
19,CCCC[C@H]1C[C@@H]1[C@@H]1N(P(=O)(c2ccccc2)c2ccccc2)C[C@@](O)(c2ccccc2)CC12CC2,"inconclusive [inhibitor, single point]"
20,COc1ccc(CNC(=O)C2CCN(S(=O)(=O)c3ccc4c(c3)CC(C)N4C(=O)C3CC3)CC2)cc1 (stereo not given),inactive

# From PubChem BioAssay AID2546 (National Center for Advancing Translational Sciences (NCATS), 2010)
